In PubChem BioAssay AID540317 (National Center for Advancing Translational Sciences (NCATS), 2011):
About 2,200 (0.56%) of roughly 390,000 compounds were called active. Inconclusive results, whose numbers are uncertain, are shown with a selection of clear calls. The call rests on the fitted dose curve; in most records, active means well fitted inhibition curve with a large enough effect; inconclusive means small, poorly fitted or top-dose-only effect; inactive means no such curve, though single readings can be large or run the other way. A potency beside an inconclusive call is a rough fit, not a confirmed value.

Target: Chromobox protein homolog 1 (Homo sapiens) (UniProt P83916)
Chain of UniProt P83916 (P83916 whole entry, looked up): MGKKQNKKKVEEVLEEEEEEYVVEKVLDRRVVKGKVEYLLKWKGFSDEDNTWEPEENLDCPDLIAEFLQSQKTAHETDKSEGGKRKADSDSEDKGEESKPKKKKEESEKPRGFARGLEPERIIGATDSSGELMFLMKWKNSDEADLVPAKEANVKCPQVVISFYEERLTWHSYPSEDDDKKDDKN
Assay: HTS for Inhibitors of HP1-beta Chromodomain Interactions with Methylated Histone Tails; further: nearly all actives have a fitted effect of over 70% in size
Details: AlphaScreen HP1-beta / biotin-H3K9me3 peptide binding; series mostly up to 114 µM; activity change, negative = inhibition: at the top concentration
Procedure, shortened: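 HP1-beta protein (50 nM final) preincubated 30 min at room temperature with biotinylated H3(1-18)K9me3 peptide (50 nM) in PBS pH 7.4, 0.01% Tween-20, then compound added for 30 min. AlphaScreen streptavidin donor/nickel chelate acceptor beads (10 ug/mL final), 30 min dark, luminescence read.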
Potency means the concentration at half of the fitted maximal effect; tags describe the fitted curve by direction and shape.

SMILES	Potency	activity change, negative = inhibition
Nn1c(SCC(=O)N2CCCc3ccccc32)nncc1=O	inconclusive: 89.1 µM [inhibitor, single point]	
CC1CCCN(CCOCCOc2ccc(Cl)cc2Br)C1 (stereo not drawn)	inconclusive: 89.1 µM [inhibitor, single point]	
COc1ccc(N2C(=O)C3C(C2=O)C(C(=O)c2ccc(Cl)cc2)N2CCCC32)cc1 (stereo not drawn)	inconclusive: 70.8 µM [inhibitor, partial curve]	
Cc1cc(Cl)ccc1OCC(=O)N1C(C)CCCC1C (stereo not drawn)		inactive: 36.3%
COc1cc(OC)cc(C(=O)Nc2cccc(NC(=O)c3ccccc3)c2)c1	inconclusive: 89.1 µM [inhibitor, single point]	
COc1ccc2cc(C(=O)/C=C/c3cc(OC)c(O)c(OC)c3)ccc2c1	inconclusive: 50.1 µM [inhibitor, partial curve]	
O=C1NN(c2ccccc2)C(=O)/C1=C/c1ccc(-c2ccc(C(=O)O)cc2)o1	inconclusive: 12.6 µM [inhibitor, partial curve, poor fit]	
CCOC(=O)c1c(/N=C/C2=C(O)CC(C)(C)CC2=O)sc(C(C)=O)c1C		inactive: 6.76%
COc1cc(C=NNc2ccc(S(=O)(=O)Nc3ccccc3C(=O)O)cc2[N+](=O)[O-])ccc1O	inconclusive: 17.8 µM [inhibitor, full curve]	
C(=NN1CCCCCC1)c1cccc2ccccc12	inconclusive: 50.1 µM [inhibitor, partial curve]	
O=C(Nc1cccc(NC(=O)c2cccs2)c1)c1ccc([N+](=O)[O-])o1	inconclusive: 79.4 µM [inhibitor, partial curve, poor fit]	
Nc1cc(S(=O)(=O)Nc2ccccc2Cl)ccc1N1CCCCC1	inconclusive: 31.6 µM [inhibitor, partial curve]	
COc1ccc(SN=C2C(C)=CC(=O)C=C2C)cc1	inconclusive: 7.08 µM [inhibitor, full curve]	
CC(C)CNC(=S)N1CCN(C)CC1	inconclusive: 56.2 µM [inhibitor, single point]	
CCN(CC)c1ccc(NC(=O)CN2CCN(S(=O)(=O)c3ccc(C(C)C)cc3)CC2)cc1	inconclusive: 20 µM [inhibitor, full curve]	
O=C(c1ccc(Br)o1)N(Cc1ccccc1)Cc1ccccc1	inconclusive: 22.4 µM [inhibitor, full curve]	
O=[N+]([O-])c1cccnc1N1CCN(c2ccc(F)cc2)CC1	active: 44.7 µM	
COc1ccc([N+](=O)[O-])cc1NC(=O)Cc1noc2ccc(C)cc12	inconclusive: 89.1 µM [inhibitor, single point]	
